Hit rate of the full screen: of about 45,000 compounds, about 65 (0.1%) were called active. Calls come from the whole dose curve; as a rule, active = well fitted activation curve with a large enough effect; inconclusive = small, poorly fitted or top-dose-only effect; inactive = no such curve, though single readings can be large or run the other way. This is one part of the list.
Molecular target: Galactocerebrosidase (Homo sapiens) (UniProt P54803)
Assay: A Novel Cell-Based Assay to Identify Small Molecules for B -Galactocerebrosidase; note: 0% is about no effect; nearly all actives have a fitted effect of over 65% in size
Conditions: 145M-Twi-hGALC-G270D cells, HMU-beta-Gal fluorescence, 48 h; series mostly up to 57.5 µM; activation: at the top concentration
Procedure, shortened: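 qHTS, 1536-well; 145M-Twi-hGALC-G270D cells (WT line also made) in DMEM/F12 + 10% FBS; compound incubation on live cells; HMU-β-gal 0.1 mM final, pH 5.2, NaTC; carbonate stop; fluorescence increase = enhanced residual activity.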

Chain of UniProt P54803 (P54803 whole entry, looked up): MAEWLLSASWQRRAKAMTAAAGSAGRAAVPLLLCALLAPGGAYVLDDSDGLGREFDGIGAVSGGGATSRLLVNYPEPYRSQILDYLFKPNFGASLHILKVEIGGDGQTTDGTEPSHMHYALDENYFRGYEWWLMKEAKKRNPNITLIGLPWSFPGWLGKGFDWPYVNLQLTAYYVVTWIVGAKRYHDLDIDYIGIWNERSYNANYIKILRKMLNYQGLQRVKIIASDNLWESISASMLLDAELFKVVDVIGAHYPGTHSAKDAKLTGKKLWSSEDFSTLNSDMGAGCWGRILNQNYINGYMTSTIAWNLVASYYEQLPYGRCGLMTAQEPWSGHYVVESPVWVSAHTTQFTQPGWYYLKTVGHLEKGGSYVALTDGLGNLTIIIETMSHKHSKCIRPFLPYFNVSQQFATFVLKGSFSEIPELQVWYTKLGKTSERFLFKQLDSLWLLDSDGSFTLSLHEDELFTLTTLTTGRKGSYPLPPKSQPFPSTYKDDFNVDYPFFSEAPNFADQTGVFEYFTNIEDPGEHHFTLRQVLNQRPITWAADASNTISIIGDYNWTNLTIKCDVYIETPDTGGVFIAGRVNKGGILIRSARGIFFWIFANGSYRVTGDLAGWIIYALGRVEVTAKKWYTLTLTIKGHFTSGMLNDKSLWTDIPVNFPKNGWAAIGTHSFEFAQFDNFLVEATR

activation, inactive:
Cc1cc(N2CCN(C)CC2)nc2ccc(NC(=O)c3ccc(C(C)(C)C)cc3)cc12 -10.2%
CCN(CC)S(=O)(=O)c1ccc(NC(=O)c2cc3ccc4cccnc4c3[nH]2)cc1 -9.15%
CN(Cc1ccccc1)c1nnc(NC(=O)Nc2cccc(Br)c2)s1 -6.14%
Cc1ccc(-n2nc(C(=O)Nc3ccc(F)cc3Cl)c(=O)n(C)c2=O)cc1 -14.1%
CCOC(=O)c1c(S(=O)(=O)N2CCC(C(=O)NCc3cccc(C)c3)CC2)c(C)n(C)c1C -12.5%
CCOc1cccc2sc(N3CCN(C(=O)c4ccc5c(c4)CCCC5)CC3)nc12 -7.55%
COc1ccc(CNC(=O)c2nc(SCc3ccc(C)cc3)ncc2Cl)cc1 -1.73%
CCc1nnc(NC(=O)CSc2nccn2Cc2ccc(C)cc2)s1 -9.03%
COc1ccccc1NC(=O)CSc1nc(O)c(C/C=C/c2ccccc2)c(=O)[nH]1 -6.6%
COc1ccc(Cn2c(=O)n(-c3ccc(F)c(Cl)c3)c(=O)c3c2c2cc(OC)ccc2n3C)cc1 -17.2%
Cc1noc(NS(=O)(=O)c2ccc(N)cc2)c1C -9.4%
O=C(c1cccs1)N1CCCc2cc(NS(=O)(=O)c3ccc(Cl)cc3)ccc21 -8.24%
COc1ccc(C(CNC(=O)c2ccc(C)cc2)N2CCOCC2)cc1 (stereo unspecified) -11.6%
COc1ccc(NC(=O)c2cnc(SCC(=O)Nc3nc4ccc(C)cc4s3)n(C)c2=O)cc1 -9.3%
CC(=O)c1ccc(NC(=O)Cn2c3ncccc3c(=O)n2-c2ccc(C)cc2)cc1 3.44%
CCc1ccc(C2C(C(=O)Nc3ccccc3)=C(C)Nc3nc(SCC(=O)c4ccc(C)cc4)nn32)cc1 (stereo unspecified) -8.08%
CCc1cccc2c3c([nH]c12)C(CC)(CC(=O)O)OCC3 (stereo unspecified) -13.7%
O=C(c1ccco1)c1cn(CCOc2ccc(Cl)cc2)c2ccccc12 -19.4%
Cc1cccc(C(=O)NCC(c2ccc3c(c2)OCO3)N2CCOCC2)c1 (stereo unspecified) -5.55%
Cc1ccc(-c2noc(CSc3nnc(-c4ccc(Cl)cc4)n3C)n2)cc1 -18.7%
COc1ccccc1-c1cc(C(F)(F)F)nc(S(=O)(=O)CCCC(=O)Nc2cc(Br)ccc2O)n1 -0.353%
O=C(NCCc1ccccc1)C(=O)NCC(c1cccnc1)N1CCN(c2ccc(F)cc2)CC1 (stereo unspecified) -16.2%
CCC(=O)N1CCc2cc(CNC(=O)Nc3ccc(OC)cc3OC)ccc21 -3.08%
O=C(CSc1nccn1Cc1ccccc1)NC1CCCC1 -14.8%
CCCCC(=O)O[C@]1(C(=O)CO)CC[C@H]2[C@@H]3CCC4=CC(=O)CC[C@]4(C)[C@H]3[C@@H](O)C[C@@]21C -12.3%
COc1ccc(NC(=O)C2CCN(S(=O)(=O)c3c(C)noc3/C=C/c3ccco3)CC2)cc1 -8.9%
CCN(C(=O)CN(C)S(=O)(=O)c1ccc2c(c1)n(C)c(=O)c(=O)n2C)c1cccc(C)c1 0.794%
Cc1cccc(-c2noc(-c3ccc(N4CCCC4)c([N+](=O)[O-])c3)n2)c1 -11.5%
COc1cccc(NC(=O)Cn2c(=O)n(-c3cccc(OC)c3)c(=O)c3c4c(sc32)CCCC4)c1 -10.1%
COc1ccc(NS(=O)(=O)c2ccc3[nH]c4c(c3c2)CCCC4)c(OC)c1 -15.4%
O=C(CSCc1ccc(F)cc1)N1CCN(c2ccccc2)CC1 -17%
Cc1cc(C)c(Cn2c(=O)n(CCCCCC(=O)NCc3ccc4c(c3)OCO4)c(=O)c3sccc32)c(C)c1 -11.4%
CN(C)c1ccc(C(CNS(=O)(=O)c2cc(F)ccc2F)N2CCOCC2)cc1 (stereo unspecified) -20.5%
CC1CCC(NC(=O)c2ccc3c(c2)N(Cc2cccc(Cl)c2)C(=O)c2ccccc2S3=O)CC1 (stereo unspecified) 1.56%
O=C(NCc1ccc(Cl)cc1)C(=O)Nc1cccc(Br)c1 -2.51%
O=C(Nc1ccc2oc(-c3ccc4ccccc4c3)nc2c1)c1cc(Br)ccc1Cl -14.2%
Cc1ccc(CN(C(=O)c2ccccc2Br)C2CCS(=O)(=O)C2)o1 (stereo unspecified) -9.56%
Cc1ccc(NC(=O)Nc2cc3c(cc2N2CCCCC2)n(C)c(=O)n3C)cc1Cl -10.7%
CCOc1ccccc1NC(=O)COc1cccc2c(=O)n(CCOC)ccc12 -12.7%
Cn1c(=O)c2c(SCC(=O)NCc3ccco3)nc(-c3ccccc3F)nc2n(C)c1=O -8.14%
Cc1cc(N2CCN(C)CC2)nc2ccc(NC(=O)Nc3ccccc3)cc12 -10.3%
COc1cccc(-n2c(=O)c3c4c(sc3n(Cc3ccc(F)cc3Cl)c2=O)CCCC4)c1 -15.8%
O=C(CCCc1nc(-c2ccco2)no1)Nc1ccccc1[N+](=O)[O-] -41.3%
CC(=O)Nc1c(C(=O)Nc2cccc(C)c2)nnn1-c1ccc(C)cc1 -5.4%
CCOC(=O)c1ccc(NC(=O)c2c(C)oc3nc(C)nc(N4CCCC4)c23)cc1 -8.4%
CCC1CCCCN1S(=O)(=O)c1ccc(N2CCCCS2(=O)=O)cc1 (stereo unspecified) -20.9%
COc1ccc(C2=NN(C(C)=O)C(c3cn(-c4ccccc4)nc3-c3cccs3)C2)cc1 (stereo unspecified) 1.75%
COc1ccc(-c2[nH]ncc2C(=O)NCc2cccc(F)c2)cc1 -8.61%
Cc1ccc(Cl)cc1N1CCN(C(=O)CCSCc2ccccc2F)CC1 -12.3%
COc1ccc(NC(=O)c2oc3ccc(S(=O)(=O)N(C)C4CCCCC4)cc3c2C)cc1Cl -4.3%
Cc1c(C(=O)Nc2ccc(Br)cc2F)oc2ccc(S(=O)(=O)N3CCC4(CC3)OCCO4)cc12 0.739%
CCc1ccc(-c2cc(C)no2)cc1S(=O)(=O)N1CCN(c2cccc(Cl)c2)CC1 -8.84%
Cc1ccc(-n2nc(-c3ccc(F)cc3)c3cnc4cc5c(cc4c32)OCO5)cc1C -0.705%
CCc1ccc(NC(=O)CC(c2ccc(C)cc2)N2Cc3ccccc3C2=O)cc1 (stereo unspecified) -7.74%
COCCNC(=O)c1ccc2nc(CCc3ccccc3)oc2c1 -19.8%
CCCN1CCN(c2ncnc3sc(C(=O)Nc4ccc(N(CC)CC)cc4C)c(C)c23)CC1 2.43%
O=C(CSCc1cnn(-c2ccccc2)c1-n1cccc1)NCc1ccccc1F -28.6%
COc1cccc(CNS(=O)(=O)c2cc(Br)cc3c2N(C(C)=O)C(C)C3)c1 (stereo unspecified) -7.26%
CCCCOc1ccc(S(=O)(=O)n2nc(C)c(S(=O)(=O)N3CCC(C)CC3)c2C)cc1 -12.4%
CCCCN1CCCC1C(=O)Nc1c(C)cc(C)cc1C (stereo unspecified) 1.55%
Cc1ccn2c(Nc3ccc4c(c3)OCO4)c(-c3ccc(O)cc3)nc2c1 -12.6%
CCCOC(=O)C(C)n1nnc2sc(-c3ccccc3)cc2c1=O (stereo unspecified) -18.8%
Cc1ccc(-n2nc(C(=O)N3CCN(c4ccccc4)CC3)c(=O)n(C)c2=O)cc1 -11.8%
C[C@]12CC[C@@H]3c4ccc(O)cc4CC[C@H]3[C@@H]1C[C@@H](O)[C@@H]2O -13.9%
COC(=O)c1ccccc1NC(=O)c1nc(S(=O)(=O)Cc2ccccc2F)ncc1Cl -18.1%
CCc1ccccc1NC(=O)C1CCN(c2nn3c(=O)cc(C)nc3s2)CC1 -6.28%
CN(C)S(=O)(=O)Nc1ccc(-c2cn3ccsc3n2)cc1 -10.9%
COc1cccc(CC(=O)NCc2ccc3c(c2)CCN3C(C)=O)c1 -10.6%
Cc1ccc2oc(C(=O)Nc3ccc(S(=O)(=O)N(C)Cc4ccccc4)cc3)cc(=O)c2c1 -24.8%
CCc1ccc(-n2c(=O)c3c4c(sc3n(CC(=O)NCCCOC)c2=O)CCC4)cc1 0.142%
Cc1cccc(Cc2cnc(NC(=O)c3ccc4c(c3)CC(c3ccccc3)OC4=O)s2)c1 (stereo unspecified) -6.75%
CC(C)Oc1ccc(CNC(=O)c2ccc3nc(SCc4ccc(F)cc4)n(C)c3c2)cc1 -2.32%
Cc1ccccc1Cn1c(C)c(CNCc2ccccc2)c(C(=O)O)c1C -11.6%
CC(NC(=O)c1ccc2nc(CCc3ccccc3)oc2c1)c1ccccc1 (stereo unspecified) -7.17%
COc1ccc(NC(=O)CN(C)S(=O)(=O)c2ccc3[nH]c4c(c3c2)CCCC4)cc1OC -10.8%
COc1ccc(NC(=O)c2nc(SCc3ccccc3F)ncc2Cl)cc1 -16.8%
O=C(NCCc1ccc(Cl)cc1)c1ccc2c(c1)N(Cc1ccccc1)CCS2 -15.4%
O=C(Nc1ccc2oc(-c3cccnc3)nc2c1)c1ccc(-c2cccc(OC(F)(F)F)c2)o1 -26.8%
COc1cccc(N2CCN(C(=O)c3ccc(CS(=O)c4cccc(Cl)c4)o3)CC2)c1 (stereo unspecified) -12.9%
Cc1ccc(C)c(NC(=O)CCc2c(C)n(C)c3cc(-c4ccccc4C)nn3c2=O)c1 3.06%
Cc1ccc(NC(=O)CCS(=O)(=O)c2cccc3nonc23)c(C)c1 7.17%
CCCN1C(C(=O)c2ccccc2)=C(OC(=O)c2ccc(F)cc2)c2ccccc2S1(=O)=O -11.4%
Cc1ccc(C)c(Cn2c3ccccc3c3cnn(CC(=O)N4CCCCC4)c(=O)c32)c1 -15.4%
CCOc1ccc(NC(=O)Cn2c(CCC(=O)O)ccc2-c2ccc(Cl)cc2)cc1 -9.39%
COc1cc2c(C(=O)N3CCN(c4cccc(C)c4)C(C)C3)cn(CC(C)C)c(=O)c2cc1OC (stereo unspecified) 0.862%
Cc1cccc(-n2c(=O)c3ccccc3n(Cc3ccccc3C#N)c2=O)c1 -8.16%
Cc1nn(CCC(=O)NC(C)C)c(=O)c2nn(-c3ccccc3)c(C)c12 -4.55%
O=C(OCCN1CCOCC1)c1cccnc1Nc1cccc(C(F)(F)F)c1 -10.9%
COc1ccc(Cl)cc1NC(=O)c1cc(S(=O)(=O)N2CCc3ccccc32)cn1C -9.84%
COc1cccc(Cc2nc3ccccc3nc2SCC(=O)N2CCCCC2C)c1 (stereo unspecified) -17%
Cc1ccc2nc(NCc3ccccc3Cl)c3nnnn3c2c1 -5.93%
O=C(CSc1nc2c([nH]c3ccccc32)c(=O)n1-c1cccc(Cl)c1)N1CCc2ccccc21 -8.11%
CCc1nnc(NC(=O)c2nc(S(C)(=O)=O)ncc2Cl)s1 -4.76%
COc1cc2ccccc2cc1C(=O)Nc1ccc2oc(-c3cc(Br)ccc3Cl)nc2c1 -19.8%
CCOc1ccccc1NC(=O)c1sc2nc3c(cc2c1N)CN(Cc1ccccc1)CC3 -14.4%
COc1cc(NC(=O)CCc2c(C)n(C)c3cc(-c4ccccc4C)nn3c2=O)cc(OC)c1OC 0.689%
